From the supplement of paper PMC8728848
This is one part of the list.

Assays:
Assay in all cases: glycan array binding signal (z-score within array); higher = stronger binding
Details in all cases: glycan notation: IUPAC condensed, linker removed
[1] = molecular target: GlcNAc(b1-3)Gal(b1-4)Glc
Outline: (§1)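 Glycan array data were curated from 3228 arrays in the Consortium for Functional Glycomics database and kept only where the protein sequence was available. Glycan names were converted to IUPAC-condensed notation, and columns mapping to the same glycan were averaged. The binding signal is a within-array Z-score, averaged across arrays of the same protein sequence at different concentrations or buffers and across linkers. Negative Z-scores can be read as non-binding.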

[2] = molecular target: GlcNAc(b1-3)Gal(b1-4)GlcNAc
Outline: as §1

[3] = molecular target: GlcNAc(b1-3)Gal(b1-4)GlcNAc(b1-2)Man(a1-3)[GlcNAc(b1-3)Gal(b1-4)GlcNAc(b1-2)Man(a1-6)]Man(b1-4)GlcNAc(b1-4)GlcNAc
Outline: as §1

[4] = molecular target: GlcNAc(b1-3)Gal(b1-4)GlcNAc(b1-2)Man(a1-3)[GlcNAc(b1-3)Gal(b1-4)GlcNAc(b1-2)Man(a1-6)]Man(b1-4)GlcNAc(b1-4)[Fuc(a1-6)]GlcNAc
Outline: as §1

[5] = molecular target: GlcNAc(b1-3)Gal(b1-4)GlcNAc(b1-2)[GlcNAc(b1-3)Gal(b1-4)GlcNAc(b1-6)]Man(a1-6)[GlcNAc(b1-3)Gal(b1-4)GlcNAc(b1-2)Man(a1-3)]Man(b1-4)GlcNAc(b1-4)GlcNAc
Outline: as §1

[6] = molecular target: GlcNAc(b1-3)Gal(b1-4)GlcNAc(b1-3)Gal(b1-4)GlcNAc
Outline: as §1

[7] = molecular target: GlcNAc(b1-3)Gal(b1-4)GlcNAc(b1-3)Gal(b1-4)GlcNAc(b1-2)Man(a1-3)[GlcNAc(b1-3)Gal(b1-4)GlcNAc(b1-3)Gal(b1-4)GlcNAc(b1-2)Man(a1-6)]Man(b1-4)GlcNAc(b1-4)GlcNAc
Outline: as §1

[8] = molecular target: GlcNAc(b1-3)Gal(b1-4)GlcNAc(b1-3)Gal(b1-4)GlcNAc(b1-2)Man(a1-3)[GlcNAc(b1-3)Gal(b1-4)GlcNAc(b1-3)Gal(b1-4)GlcNAc(b1-2)Man(a1-6)]Man(b1-4)GlcNAc(b1-4)[Fuc(a1-6)]GlcNAc
Outline: as §1

[9] = molecular target: GlcNAc(b1-3)Gal(b1-4)GlcNAc(b1-3)Gal(b1-4)GlcNAc(b1-2)[GlcNAc(b1-3)Gal(b1-4)GlcNAc(b1-3)Gal(b1-4)GlcNAc(b1-6)]Man(a1-6)[GlcNAc(b1-3)Gal(b1-4)GlcNAc(b1-3)Gal(b1-4)GlcNAc(b1-2)Man(a1-3)]Man(b1-4)GlcNAc(b1-4)[Fuc(a1-6)]GlcNAc
Outline: as §1

[10] = molecular target: GlcNAc(b1-3)Gal(b1-4)GlcNAc(b1-3)Gal(b1-4)GlcNAc(b1-3)Gal(b1-4)GlcNAc(b1-2)Man(a1-3)[GlcNAc(b1-3)Gal(b1-4)GlcNAc(b1-3)Gal(b1-4)GlcNAc(b1-3)Gal(b1-4)GlcNAc(b1-2)Man(a1-6)]Man(b1-4)GlcNAc(b1-4)GlcNAc
Outline: as §1

[11] = molecular target: GlcNAc(b1-3)Gal(b1-4)GlcNAc(b1-3)Gal(b1-4)GlcNAc(b1-3)Gal(b1-4)GlcNAc(b1-2)Man(a1-3)[GlcNAc(b1-3)Gal(b1-4)GlcNAc(b1-3)Gal(b1-4)GlcNAc(b1-3)Gal(b1-4)GlcNAc(b1-2)Man(a1-6)]Man(b1-4)GlcNAc(b1-4)[Fuc(a1-6)]GlcNAc
Outline: as §1

[12] = molecular target: GlcNAc(b1-3)Gal(b1-4)GlcNAc(b1-3)Gal(b1-4)GlcNAc(b1-3)Gal(b1-4)GlcNAc(b1-2)[GlcNAc(b1-3)Gal(b1-4)GlcNAc(b1-3)Gal(b1-4)GlcNAc(b1-3)Gal(b1-4)GlcNAc(b1-6)]Man(a1-6)[GlcNAc(b1-3)Gal(b1-4)GlcNAc(b1-3)Gal(b1-4)GlcNAc(b1-3)Gal(b1-4)GlcNAc(b1-2)Man(a1-3)]Man(b1-4)GlcNAc(b1-4)[Fuc(a1-6)]GlcNAc
Outline: as §1

[13] = molecular target: GlcNAc(b1-3)Gal(b1-4)GlcNAc(b1-3)Gal(b1-4)GlcNAc(b1-3)Gal(b1-4)GlcNAc(b1-3)Gal(b1-4)GlcNAc(b1-2)Man(a1-3)[GlcNAc(b1-3)Gal(b1-4)GlcNAc(b1-3)Gal(b1-4)GlcNAc(b1-3)Gal(b1-4)GlcNAc(b1-3)Gal(b1-4)GlcNAc(b1-2)Man(a1-6)]Man(b1-4)GlcNAc(b1-4)GlcNAc
Outline: as §1

[14] = molecular target: GlcNAc(b1-3)Gal(b1-4)GlcNAc(b1-3)Gal(b1-4)GlcNAc(b1-3)Gal(b1-4)GlcNAc(b1-3)Gal(b1-4)GlcNAc(b1-2)Man(a1-3)[GlcNAc(b1-3)Gal(b1-4)GlcNAc(b1-3)Gal(b1-4)GlcNAc(b1-3)Gal(b1-4)GlcNAc(b1-3)Gal(b1-4)GlcNAc(b1-2)Man(a1-6)]Man(b1-4)GlcNAc(b1-4)[Fuc(a1-6)]GlcNAc
Outline: as §1

[15] = molecular target: GlcNAc(b1-3)Gal(b1-4)GlcNAc(b1-3)Gal(b1-4)GlcNAc(b1-3)Gal(b1-4)GlcNAc(b1-3)Gal(b1-4)GlcNAc(b1-2)[GlcNAc(b1-3)Gal(b1-4)GlcNAc(b1-3)Gal(b1-4)GlcNAc(b1-3)Gal(b1-4)GlcNAc(b1-3)Gal(b1-4)GlcNAc(b1-6)]Man(a1-6)[GlcNAc(b1-3)Gal(b1-4)GlcNAc(b1-3)Gal(b1-4)GlcNAc(b1-3)Gal(b1-4)GlcNAc(b1-3)Gal(b1-4)GlcNAc(b1-2)Man(a1-3)]Man(b1-4)GlcNAc(b1-4)[Fuc(a1-6)]GlcNAc
Outline: as §1

[16] = molecular target: GlcNAc(b1-3)Gal(b1-4)GlcNAc(b1-3)Gal(b1-4)GlcNAc(b1-3)GalNAc
Outline: as §1

[17] = molecular target: GlcNAc(b1-3)Gal(b1-4)GlcNAc(b1-3)GalNAc
Outline: as §1

[18] = molecular target: GlcNAc(b1-3)Gal(b1-4)GlcNAc(b1-3)[GlcNAc(b1-3)Gal(b1-4)GlcNAc(b1-3)]GalNAc
Outline: as §1

[19] = molecular target: GlcNAc(b1-3)Gal(b1-4)GlcNAc(b1-6)[Gal(b1-3)]GalNAc
Outline: as §1

[20] = molecular target: GlcNAc(b1-3)Gal(b1-4)GlcNAc(b1-6)[GlcNAc(b1-3)Gal(b1-3)]GalNAc
Outline: as §1

[21] = molecular target: GlcNAc(b1-3)Gal(b1-4)GlcNAc(b1-6)[GlcNAc(b1-3)]Gal(b1-4)GlcNAc
Outline: as §1

[22] = molecular target: GlcNAc(b1-3)GalNAc
Outline: as §1

[23] = molecular target: GlcNAc(b1-3)Man
Outline: as §1

[24] = molecular target: GlcNAc(b1-3)[GlcNAc(b1-4)][GlcNAc(b1-6)]GlcNAc
Outline: as §1

[25] = molecular target: GlcNAc(b1-3)[GlcNAc(b1-6)]Gal(b1-4)GlcNAc
Outline: as §1

[26] = molecular target: GlcNAc(b1-3)[GlcNAc(b1-6)]GalNAc
Outline: as §1

[27] = molecular target: GlcNAc(b1-4)Gal(b1-4)GlcNAc
Outline: as §1

[28] = molecular target: GlcNAc(b1-4)GlcNAc
Outline: as §1

[29] = molecular target: GlcNAc(b1-4)GlcNAc(b1-4)GlcNAc
Outline: as §1

[30] = molecular target: GlcNAc(b1-4)GlcNAc(b1-4)GlcNAc(b1-4)GlcNAc(b1-4)GlcNAc
Outline: as §1

[31] = molecular target: GlcNAc(b1-4)GlcNAc(b1-4)GlcNAc(b1-4)GlcNAc(b1-4)GlcNAc(b1-4)GlcNAc
Outline: as §1

[32] = molecular target: GlcNAc(b1-4)[GlcNAc(b1-6)]GalNAc
Outline: as §1

[33] = molecular target: GlcNAc(b1-6)Gal(b1-4)GlcNAc
Outline: as §1

[34] = molecular target: GlcNAc(b1-6)GalNAc
Outline: as §1

[35] = molecular target: GlcNAc6S(b1-3)Gal(b1-4)GlcNAc
Outline: as §1

[36] = molecular target: Kdn(a2-3)Gal(b1-3)GalNAc
Outline: as §1

[37] = molecular target: Kdn(a2-3)Gal(b1-3)GlcNAc
Outline: as §1

[38] = molecular target: Kdn(a2-3)Gal(b1-4)Glc
Outline: as §1

[39] = molecular target: Kdn(a2-3)Gal(b1-4)GlcNAc
Outline: as §1

[40] = molecular target: Kdn(a2-3)Gal(b1-4)[Fuc(a1-3)]GlcNAc
Outline: as §1

[41] = molecular target: Kdn(a2-6)Gal(b1-4)GlcNAc
Outline: as §1

[42] = molecular target: Man(a1-2)Man(a1-2)Man(a1-3)Man
Outline: as §1

[43] = molecular target: Man(a1-2)Man(a1-2)Man(a1-6)[Man(a1-3)]Man
Outline: as §1

[44] = molecular target: Man(a1-2)Man(a1-3)Man
Outline: as §1

[45] = molecular target: Man(a1-2)Man(a1-3)[Man(a1-2)Man(a1-6)]Man
Outline: as §1

B1: RBMC1 (Vibrio cholerae) (protein)
chain: QQSQRVVTADNLMYLRSGFAIDAIGTTVNNLVGGPVQGTNGGVLRAPIALDQLQSVEVTSGLYNWGGYHIVAIKFTMKDGSSVLLGSTHYASNKKVETYTVPQGKRIKQINVWTGGWLVEGFQFVY
[1]
  glycan array binding signal (z-score): -0.395
[2]
  glycan array binding signal (z-score): -0.434
[3]
  glycan array binding signal (z-score): 1.91
[4]
  glycan array binding signal (z-score): 2.83
[5]
  glycan array binding signal (z-score): -0.295
[6]
  glycan array binding signal (z-score): -0.354
[7]
  glycan array binding signal (z-score): 0.504
[8]
  glycan array binding signal (z-score): 2.5
[9]
  glycan array binding signal (z-score): -0.261
[10]
  glycan array binding signal (z-score): 1.38
[11]
  glycan array binding signal (z-score): 1.96
[12]
  glycan array binding signal (z-score): -0.366
[13]
  glycan array binding signal (z-score): 1.54
[14]
  glycan array binding signal (z-score): 0.918
[15]
  glycan array binding signal (z-score): -0.273
[16]
  glycan array binding signal (z-score): -0.387
[17]
  glycan array binding signal (z-score): -0.108
[18]
  glycan array binding signal (z-score): -0.258
[19]
  glycan array binding signal (z-score): -0.288
[20]
  glycan array binding signal (z-score): -0.181
[21]
  glycan array binding signal (z-score): -0.272
[22]
  glycan array binding signal (z-score): -0.294
[23]
  glycan array binding signal (z-score): 0.118
[24]
  glycan array binding signal (z-score): -0.158
[25]
  glycan array binding signal (z-score): -0.379
[26]
  glycan array binding signal (z-score): -0.416
[27]
  glycan array binding signal (z-score): -0.362
[28]
  glycan array binding signal (z-score): 1.84
[29]
  glycan array binding signal (z-score): -0.085
[30]
  glycan array binding signal (z-score): -0.358
[31]
  glycan array binding signal (z-score): -0.23
[32]
  glycan array binding signal (z-score): -0.352
[33]
  glycan array binding signal (z-score): -0.24
[34]
  glycan array binding signal (z-score): -0.289
[35]
  glycan array binding signal (z-score): -0.267
[36]
  glycan array binding signal (z-score): 0.471
[37]
  glycan array binding signal (z-score): -0.41
[38]
  glycan array binding signal (z-score): -0.049
[39]
  glycan array binding signal (z-score): -0.182
[40]
  glycan array binding signal (z-score): -0.015
[41]
  glycan array binding signal (z-score): 0.007
[42]
  glycan array binding signal (z-score): -0.395
[43]
  glycan array binding signal (z-score): -0.207
[44]
  glycan array binding signal (z-score): -0.424
[45]
  glycan array binding signal (z-score): -0.411
